Assay results: patent US10654893B2, “Self-assembling peptide compositions” (3-D MATRIX, LTD., priority 2014, dated 2020)
Part of at least one peptide drawing is inferred or uncertain, most often the ends. Where a SMILES comes first, the peptide text is derived from it.

Assays:
Assay type in all cases: physicochemical
[1] = Appearance (optical clarity, phase stability) of reference peptide compositions in water; conditions: peptide dissolved in water, IEIK13 up to 2.5%, KLD12 up to at least 2.5%
[2] = Formulation chart: concentration for desired storage modulus from linear trendline equations; conditions: linear trendline equation
Excerpt: In some embodiments, peptide compositions with a specific desired stiffness may be formulated to have a particular peptide concentration determined using a mathematical model (i.e., the modulus trend-line equation). A formulation chart of peptide compositions may relate their concentrations in deionized water to their specific storage moduli, for example as is presented below in Table 3A. From such a chart, one skilled in the art may formulate a peptide composition with desired rheological properties by selecting a particular peptide and an appropriate peptide concentration so that the formulated composition has a desired stiffness.

[3] = pH of reference peptide compositions in water; conditions: reference composition in water
Excerpt: Table 2, below, presents pH concentrations observed for reference compositions in which the indicated peptide is solubilized in water at the indicated concentration.

[4] = Rheological properties (stiffness, storage modulus, viscosity) at selected pH levels; conditions: for Stiffness at elevated pH versus unadjusted pH: pH 3.4 (RADA16, KLD12) or 3.7 (IEIK13) versus 2.5 (RADA16), 2.0 (KLD12), 2.1 (IEIK13), stress sweep
Procedure: Rheological properties of certain peptide compositions were observed before and after adjusting their pH levels to 3.4 (RADA16 (SEQ ID NO:1) and KLD12 (SEQ ID NO:2)) or 3.7 (IEIK13 (SEQ ID NO:3)). Rheological properties of peptides were evaluated using a rheometer (AR500, TA Instruments) with 40 mm plates. Specifically, a peptide composition (700 μL) was placed on the rheometer plate and excess composition was gently removed by Kimwipes. Measurements were performed after 2 minutes of relaxation time at 37° C. RADA16 (SEQ ID NO:1), KLD12 (SEQ ID NO:2) and IEIK13 (SEQ ID NO:3) compositions at elevated pH were stiffer than those at 2.5 (RADA16 (SEQ ID NO:1)), 2.0 (KLD12 (SEQ ID NO:2)), and 2.1 (IEIK13 (SEQ ID NO:3)).
Storage modulus of certain peptide compositions at selected pH levels were evaluated using a rheometer (DHR-1, TA Instruments) with 20 mm plates. […] Determined storage moduli for tested peptide compositions are shown in FIG. 18 for RADA16 (SEQ ID NO:1) and FIG. 19 for IEIK13 (SEQ ID NO:3), respectively.
Viscosities of 1% IEIK13 (SEQ ID NO:3) compositions at selected pH levels were evaluated using a rheometer (DHR-1, TA Instruments) with 20 mm plates.

[5] = Recovery (reassembling) time of storage modulus after high shear stress; conditions: after 1000 l/sec shear rate for 1 min
[6] = Rheological properties at selected ionic strengths (DHR-1, 20 mm plates); conditions: for Rheological properties after adjusting ionic strength with NaCl: NaCl 0.7 M (RADA16), 0.2 M (KLD12), 0.02 M (IEIK13), 1%
Excerpt: FIGS. 27-29 show rheological properties measured with a rheometer (DHR-1, TA Instruments) with 20 mm plates when ion strengths are slightly lower than the critical ion strengths. Ion strengths of RADA16 (SEQ ID NO:1), KLD12 (SEQ ID NO:2) and IEIK13 (SEQ ID NO:3) were 0.7 M, 0.2 M and 0.02M, respectively for the measurements. Rheological properties of RADA16 (SEQ ID NO:1), KLD12 (SEQ ID NO:2) and IEIK13 (SEQ ID NO:3) compositions were higher after adjusting their ionic strength levels with NaCl to 0.7 M (RADA16 (SEQ ID NO:1)), 0.2 M (KLD12 (SEQ ID NO:2)) or 0.02 M (IEIK13 (SEQ ID NO:3)).
Rheological properties of peptide compositions at selected ionic strengths were measured using a rheometer (DHR-1, TA Instruments) with 20 mm plates. […] Results are shown in FIG. 30 for RADA16 (SEQ ID NO:1) and in FIG. 31 for IEIK13 (SEQ ID NO:3).
Viscosities of peptide compositions at selected ionic strength levels were evaluated. […] Viscosities of 1% IEIK13 (SEQ ID NO:3) compositions were evaluated using a rheometer (DHR-1, TA Instruments) with 20 mm plates. The results are shown in FIGS. 32A and 32B for IEIK13 (SEQ ID NO:3).

[7] = Time sweep test of gelation after adding DMEM or saline buffer; conditions: for Gelation on exposure to saline buffer: 0.15 M NaCl
Procedure: FIG. 25 includes 1.5% IEIK13 (SEQ ID NO:3) data at pH 2.3, 2.6, 2.9 and 3.2. Time sweep tests were performed at 1 rad/sec and at 1 Pa with 20 mm plates and 500 μm gap distance. During time sweep tests, DMEM was added into the chamber surrounding the measuring plates to soak the peptides at time=0.
Time sweep tests were performed at 1 rad/sec and at 1 Pa with 20 mm plates and 500 μm gap distance. During time sweep tests, the saline buffer was added into the chamber surrounding the measuring plates to soak the peptides at time=0.

[8] = Compositions with 0.9% NaCl at pH 3.4 (combined salt and pH); conditions: 0.9% NaCl (ionic strength of 0.15 M) at pH 3.4 (adjusted with NaOH)
Procedure: IEIK13 (SEQ ID NO:3), KLD12 (SEQ ID NO:2), and RADA16 (SEQ ID NO:1) were dissolved in salt buffer (e.g. NaCl) and kept at elevated pH level adjusted with alkali salt buffer (e.g. NaOH). The compositions had their pH levels about 2.5-4.0 and lower ionic strength than their critical points. With respect to RADA16 (SEQ ID NO:1), KLD12 (SEQ ID NO:2) and IEIK13 (SEQ ID NO:3), peptide compositions were still clear with 0.9% NaCl (i.e. ionic strength of 0.15 M) at pH 3.4 (adjusted with NaOH). Rheological properties of RADA16 (SEQ ID NO:1) with 0.9% NaCl at pH 3.4 were stiffer than those of RADA16 control (i.e. no ionic strength and pH elevation) and RADA16 (SEQ ID NO:1) with 0.9% NaCl (no pH elevation).

SMILES | Appearance ([1]; optical clarity) | Appearance ([1]; phase separation) | Peptide concentration with deionized water to obtain desired storage modulus ([2]; storage modulus 150 Pa) | Peptide concentration with deionized water to obtain desired storage modulus ([2]; storage modulus 250 Pa) | Peptide concentration with deionized water to obtain desired storage modulus ([2]; storage modulus 350 Pa) | Peptide concentration with deionized water to obtain desired storage modulus ([2]; storage modulus 500 Pa) | Peptide concentration with deionized water to obtain desired storage modulus ([2]; storage modulus 600 Pa) | Peptide concentration with deionized water to obtain desired storage modulus ([2]; storage modulus 700 Pa) | Peptide concentration with deionized water to obtain desired storage modulus ([2]; storage modulus 800 Pa) | Peptide concentration with deionized water to obtain desired storage modulus ([2]; storage modulus 900 Pa) | Peptide concentration with deionized water to obtain desired storage modulus ([2]; storage modulus 1000 Pa) | Peptide concentration with deionized water to obtain desired storage modulus ([2]; storage modulus 1050 Pa) | Peptide concentration with deionized water to obtain desired storage modulus ([2]; storage modulus 1200 Pa) | Peptide concentration with deionized water to obtain desired storage modulus ([2]; storage modulus 1400 Pa) | Peptide concentration with deionized water to obtain desired storage modulus ([2]; storage modulus 1600 Pa) | Peptide concentration with deionized water to obtain desired storage modulus ([2]; storage modulus 1800 Pa) | Peptide concentration with deionized water to obtain desired storage modulus ([2]; storage modulus 2000 Pa) | pH ([3]; Concentration 0.5%) | pH ([3]; Concentration 1.0%) | pH ([3]; Concentration 1.5%) | other results
CC[C@H](C)[C@H](N)C(=O)N[C@@H](CCC(=O)O)C(=O)N[C@H](C(=O)N[C@@H](CCCCN)C(=O)N[C@H](C(=O)N[C@@H](CCC(=O)O)C(=O)N[C@H](C(=O)N[C@@H](CCCCN)C(=O)N[C@H](C(=O)N[C@@H](CCC(=O)O)C(=O)N[C@H](C(=O)N[C@@H](CCCCN)C(=O)N[C@H](C(=O)O)[C@@H](C)CC)[C@@H](C)CC)[C@@H](C)CC)[C@@H](C)CC)[C@@H](C)CC)[C@@H](C)CC [IEIK13, Ile-Glu-Ile-Lys-Ile-Glu-Ile-Lys-Ile-Glu-Ile-Lys-Ile] | Clear | No phase | 0.5 | 0.6 | 0.7 | 0.8 | 0.9 | 1.0 | 1.1 | 1.2 | 1.3 | 1.4 | 1.5 | 1.7 | 1.9 | 2.1 | 2.3 | 2.3 | 2.1 | 2.1 | Peptide concentration with deionized water to obtain desired storage modulus ([2]; storage modulus 2200 Pa): 2.5; pH ([3]; Concentration 2.0%): 1.9; pH ([3]; Concentration 2.5%): 1.8; Viscosity as a function of pH ([4]; 1% compositions, DHR-1, 20 mm plates): increased with pH increase up to 3.5; Storage modulus as a function of pH ([4]; DHR-1, 20 mm plates, 2.5% RADA16, 1.5% IEIK13 (FIGS. 18, 19)): increased with pH increase up to 3.4; Stiffness at elevated pH versus unadjusted pH [4]: stiffer; Complete reassembling time ([5]; 1% compositions with NaCl 0.01M and 0.02M): less than 1 min-3 min; Complete reassembling time ([5]; 1% control composition (pH 2.3), 1 rad/s, 1 Pa): up to 12 hours; Complete reassembling time ([5]; 1% control compositions without salt addition): up to 12 hours; Complete reassembling time ([5]; 1% pH-elevated compositions, 1 rad/s, 1 Pa): 6˜10 min; Viscosity as a function of ionic strength ([6]; 1% compositions, NaCl): increased with the increased ionic strength; Rheological properties as a function of ionic strength ([6]; 1% compositions, NaCl, decreased at higher ionic strength): increased with ionic strength adjustment up to 0.03 M; Rheological properties after adjusting ionic strength with NaCl [6]: higher; Gelation on exposure to saline buffer [7]: initiated; Storage modulus response (gelation kinetics) ([7]; with pH adjustment, time sweep with DMEM (FIGS. 24 and 25)): immediate storage modulus increase; Storage modulus response (gelation kinetics) ([7]; without pH adjustment, time sweep with DMEM (FIG. 25)): immediate storage modulus increase; Appearance of composition [8]: still clear
CC(C)C[C@H](NC(=O)[C@H](CC(=O)O)NC(=O)[C@H](CC(C)C)NC(=O)[C@H](CCCCN)NC(=O)[C@H](CC(C)C)NC(=O)[C@H](CC(=O)O)NC(=O)[C@H](CC(C)C)NC(=O)[C@H](CCCCN)NC(=O)[C@H](CC(C)C)NC(=O)[C@H](CC(=O)O)NC(=O)[C@H](CC(C)C)NC(=O)[C@@H](N)CCCCN)C(N)=O [KLD12, Lys-Leu-Asp-Leu-Lys-Leu-Asp-Leu-Lys-Leu-Asp-Leu] (H-KLDLKLDLKLDL-NH2) | Clear | No phase | 1.1 | 1.3 | 1.5 | 1.8 | 2.0 | 2.2 | 2.5 | 2.7 | 2.9 | 3.0 | 3.3 | 3.7 | 4.1 | 4.5 | 5.0 | 2.2 | 2.0 | 2.0 | Peptide concentration with deionized water to obtain desired storage modulus ([2]; storage modulus 75 Pa): 0.9; Peptide concentration with deionized water to obtain desired storage modulus ([2]; storage modulus 125 Pa): 1.0; Peptide concentration with deionized water to obtain desired storage modulus ([2]; storage modulus 200 Pa): 1.2; Peptide concentration with deionized water to obtain desired storage modulus ([2]; storage modulus 300 Pa): 1.4; Peptide concentration with deionized water to obtain desired storage modulus ([2]; storage modulus 400 Pa): 1.6; Peptide concentration with deionized water to obtain desired storage modulus ([2]; storage modulus 425 Pa): 1.7; pH ([3]; Concentration 2.0%): 1.9; pH ([3]; Concentration 2.5%): 1.8; Stiffness at elevated pH versus unadjusted pH [4]: stiffer; Rheological properties after adjusting ionic strength with NaCl [6]: higher; Gelation on exposure to saline buffer [7]: no or negligible gelation; Appearance of composition [8]: still clear
